The supplement of paper PMC4604168 (melanoma cell lines)
Some of the results follow. Many values rest on one well or one pass, so single values are uncertain.

What was measured:
Assay in all cases: cell count relative to DMSO control; melanoma cells; higher = more viable cells
Conditions in all cases: library dose: low library concentration; 72 h
MZ2-MEL = system: MZ2-MEL
MeWo = system: MeWo
RPMI7951 = system: RPMI7951
RVH-421 = system: RVH-421
SkMel28 = system: SkMel28
SkMel30 = system: SkMel30
SkMel5 = system: SkMel5
UACC257 = system: UACC257
UACC62 = system: UACC62
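Further: cell number obtained by counting DAPI-stained nuclei in high-throughput microscope images with image analysis software, screen run in 1,536-well plates.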

Row | SMILES | cell count (MZ2-MEL) [%] | cell count (MeWo) [%] | cell count (RPMI7951) [%] | cell count (RVH-421) [%] | cell count (SkMel28) [%] | cell count (SkMel30) [%] | cell count (SkMel5) [%] | cell count (UACC257) [%] | cell count (UACC62) [%]
1 | O=C(Nc1ccccc1)c1cc([N+](=O)[O-])ccc1Cl + CCN(CC)CCCCNc1ncc2cc(-c3cc(OC)cc(OC)c3)c(NC(=O)NC(C)(C)C)nc2n1 [PD173074] (first compound 2 µM, partner dose 0.1 µM) | 96 | 104 | 68.6 | 98.8 | 72.9 | 96.7 | 104 | 139 | 91.6
2 | Cn1nnc2c(C(N)=O)ncn2c1=O [temozolomide] + Oc1cc(-c2nc(-c3ccccc3)[nH]c2-c2ccncc2)ccc1Cl [L779450] (first compound 2 µM, partner dose 0.2 µM) | 77.6 | 91 | 96.6 | 84.9 | 76.2 | 86.8 | 105 | 108 | 61.6
3 | O=C(Nc1ccccc1)c1cc([N+](=O)[O-])ccc1Cl + O=c1cc(-c2cccc3c2Sc2ccccc2S3)oc(N2CCOCC2)c1 [KU55933] (first compound 2 µM, partner dose 1 µM) | 102 | 90.3 | 96.6 | 673 | 86.5 | 89.7 | 87.3 | 94 | 113
4 | O=C(Nc1ccccc1)c1cc([N+](=O)[O-])ccc1Cl + COc1cc2ncnc(Nc3ccc(Oc4ccccc4)cc3)c2cc1OC [SrcI1] (first compound 2 µM, partner dose 2 µM) | 80.9 | 99.5 | 125 | 111 | 94.7 | 92 | 104 | 117 | 107
5 | Cc1cc(N2CCOCC2)cc2[nH]c(-c3c(NC[C@@H](O)c4cccc(Cl)c4)cc[nH]c3=O)nc12 + COc1ccc2c(c1)CCC1C2CCC2(C)C(NCCCCCCN3C(=O)C=CC3=O)CCC12 [U73122] (first compound 0.2 µM, partner dose 0.4 µM) | 104 | 95.1 | 97.6 | 87.8 | 89.3 | 78.7 | 114 | 86.6 | 96.6
6 | Cn1nnc2c(C(N)=O)ncn2c1=O [temozolomide] + N#Cc1c(O)c2c(-c3ccc(-c4ccccc4O)cc3)csc2[nH]c1=O [A769662] (first compound 2 µM, partner dose 2 µM) | 88.7 | 111 | 89.7 | 96.3 | 94.1 | 94.9 | 116 | 69.3 | 80.8
